Consider 91 compounds from PubChem BioAssay AID463173 (ICCB-Longwood Screening Facility, Harvard Medical School, 2010).

SMILES strings stand for the structures. Screen size: about 52,000 compounds; about 1,700 (3.3%) were called active. Cut-off read from the data, not from the text of the source: active = survival mostly below about 52% (no sharp cut-off); inactive = mostly above about 56%. The list shows a part of the results.

In this assay the test system is Wild type. Description: growth inhibition of S. aureus wild type versus tarO mutant, primary screen, teichoic acid synthesis inhibitors, RN4220, OD600 (AID 463173). The conditions noted are these: S. aureus RN4220 wild type/DeltatarO growth, OD600, 18 h, active compounds read low, screened at 18.75 µg/mL (by protocol).
For the compound `Cn1c2c(c(=O)n(C)c1=O)C(c1cccc(O)c1)CC(=O)N2` (stereo unspecified), the survival was inactive: 86%.
Turning to `COc1ccc(-c2onc(C)c2C)cc1S(=O)(=O)N1CCc2ccccc21`, the survival is active: 1%.
In the case of `O=C1CCC(=O)N1CC(O)CCOc1ccc(OCCC(O)CN2C(=O)CCC2=O)cc1` (stereo unspecified), the survival was inactive: 113%.
Take `CCOC(=O)c1ccc(NC(=O)CC2Nc3cccc4cccc(c34)NC2=O)cc1` (stereo unspecified): the survival is active: -13%.
For the compound `Cc1noc(C)c1S(=O)(=O)Nc1ccc(C(=O)Nc2ccc(C(C)C)cc2)cc1`, the survival was inactive: 72%.
On to `CCc1ccc(CN(C(=O)c2ccc(OC)cc2)C2CCS(=O)(=O)C2)cc1` (stereo unspecified), for which the survival was inactive: 99%.
On to `COc1cc2c(cc1NC(=O)COc1ccc(Br)c(C)c1)oc1ccccc12`, for which the survival was inactive: 66%.
In the case of `CCC12CN3CC(CC)(CN(C1)C3c1cccc(OC)c1O)C2=O` (stereo unspecified), the survival was inactive: 89%.
Consider `Cc1cccc(N2CCN(C(=O)c3cn(C)c4ccc(S(=O)(=O)N(C)C)cc4c3=O)CC2C)c1` (stereo unspecified), for which the survival is inactive: 94%.
In the case of `CN1CCN(C(=S)NCC2CCCO2)CC1` (stereo unspecified), the survival was inactive: 108%.
Take `CCc1ccc(-n2c(SCc3nc(-c4cc(OC)ccc4OC)no3)nnc2-c2ccccc2)cc1`: the survival was inactive: 74%.
`CCOC(=O)c1c(NC(=O)CCCOc2ccc(C)cc2)sc2c1CCC(C)C2` (stereo unspecified): the survival was active: 2%.
The value for `COc1ccc(C2=CC(c3ccccc3Cl)n3nc(-c4ccc(C)cc4)nc3N2)cc1` (stereo unspecified) was inactive: 73%.
The value for `CCc1nnc(SCC(=O)Nc2ccc(Cl)cc2F)c2cc3occc3n12` was inactive: 67%; that for `CCc1ccc(CNC(=O)c2ccc(CS(=O)c3ccc(Br)cc3)o2)cc1` (stereo unspecified) was inactive: 106%.
Take `CCOC(=O)Cn1c(=O)n(-c2ccccc2OC)c2nc(-c3ccccc3)nc(C(N)=O)c21`: the survival is active: -3%.
The value for `COc1ccc(-c2c(C)c3ccc(O)c(CN4CCCCC4)c3oc2=O)cc1OC` was inactive: 77%.
The value for `S=c1[nH]nc(NCCc2ccccc2)s1` was inactive: 69%.
Turning to `Cc1ccc2nc(N(Cc3cccnc3)C(=O)c3ccco3)sc2c1`, the survival was inactive: 65%.
As to `COc1cc2c3c(c1)C1(C(=O)N3C(C)(C)C=C2C)C(C#N)=C(N)NC(=O)C1C(N)=O` (stereo unspecified), the survival was inactive: 109%.
With `COc1ccc(-c2nc3ccccc3s2)cc1NC(=O)c1ccc(C#N)cc1F`, the survival is inactive: 147%.
Consider `CCn1c(C(=O)NCc2ccc(C)cc2)cc2sc(Cl)cc21`, for which the survival is inactive: 78%.
As to `COc1cn(CC(=O)Nc2c(C)cc(C)cc2C)c(CN2CCCCC2)cc1=O`, the survival is inactive: 68%.
In the case of `CC(C)c1ccc(NC(=O)c2ccc3oc(=O)c(S(=O)(=O)c4ccc(F)cc4)cc3c2)cc1`, the survival is inactive: 70%.
Turning to `CCOCCc1nn2c(=O)cc(COC(=O)COc3ccc(C)c(C)c3)nc2s1`, the survival is inactive: 69%.
In the case of `CCc1ccc(NC(=O)CC2C(=O)NCCN2C(=O)c2ccccc2OC)cc1` (stereo unspecified), the survival was inactive: 121%.
Turning to `Cc1nc(SCc2cc(=O)c3cccc(F)c3[nH]2)n[nH]1`, the survival is inactive: 74%.
As to `CCOc1ccc(S(=O)(=O)NCCc2csc3nc(-c4ccc(OC)c(OC)c4)nn23)cc1`, the survival is inactive: 71%.
Take `CS(=O)(=O)N(CC(=O)N1CCCCC1)c1sc2c(c1C#N)CCCC2`: the survival was inactive: 105%.
Consider `Clc1cccc(CSc2nc(NCCc3ccccc3)c3ccccc3n2)c1`, for which the survival is inactive: 66%.
Turning to `COc1ccccc1CNCc1ccc(C(=O)O)s1`, the survival is inactive: 85%.
`O=S(=O)(Nc1ccccc1-c1ccccc1)c1cccs1`: the survival is inactive: 132%.
In the case of `CC(C)c1ccc(NC(=O)CSc2ncnc3c2sc2ccccc23)cc1`, the survival was inactive: 84%.
Turning to `COc1ccc(NC(=O)Cn2ncc3c(C)n(Cc4cccc(Cl)c4)c(C)c3c2=O)cc1`, the survival was inactive: 89%.
Consider `COc1ccc(C(=O)Nc2ccc(N3CCN(c4ccccc4)CC3)c(C(=O)O)c2)cc1`, for which the survival was inactive: 83%.
With `COc1c(C)cccc1C(=O)Nc1ccc(Cl)c(-c2nc3cc(C)ccc3o2)c1`, the survival is active: -6%.
For `CC(C)CCOc1ccc(Cn2c(=O)sc3ccccc32)cc1`, the survival was active: -3%.
In the case of `CCOc1ccc(CCNC(=O)CSc2nc3ccccc3nc2Cc2ccc(C)cc2)cc1OCC`, the survival was inactive: 121%.
For the compound `COc1ccc(-c2nc3sc(CCNC(=O)Cc4ccc(Cl)cc4)c(C)n3n2)cc1`, the survival was inactive: 83%.
For the compound `CCN(CC)c1ccc(C(=O)NCc2ccc3c(c2)CCN3C(=O)c2cccc(C)c2)cc1`, the survival is inactive: 73%.
The value for `CCN(CC)c1ccc(NC(=O)CN(C)S(=O)(=O)c2cccc3nsnc23)c(C)c1` was inactive: 129%.
The value for `CCOc1ccc(C2C(=O)N(C3CCCCCC3)CC(=O)N2Cc2ccc(F)cc2)cc1OC` (stereo unspecified) was inactive: 128%.
In the case of `CCOc1ccccc1NC(=O)Nc1ccc2nc(N3CCN(C)CC3)cc(C)c2c1`, the survival was inactive: 83%.
The value for `CCOc1ccc(CCNC(=O)C(CC(C)C)N2Cc3ccccc3C2=O)cc1OCC` (stereo unspecified) was inactive: 69%; that for `Cc1ccc(CS(=O)Cc2ccc(C(=O)NCc3ccccc3Cl)o2)cc1` (stereo unspecified) was inactive: 83%; that for `Cc1ccc(NC(=O)C2CCCN(c3cnccn3)C2)cc1Cl` (stereo unspecified) was inactive: 85%.
As to `CCOc1ccc(NC(=O)CCc2nc3cccnc3n2Cc2ccc(OC)cc2)cc1`, the survival is inactive: 98%.
As for `Cc1ccccc1CN1C(=O)c2ccccc2Sc2ccc(C(=O)O)cc21`, the survival is inactive: 121%.
For the compound `Cc1ccc(N(CC(=O)NC2CCCC2)C(=O)c2ccc(N3CCCC3)nc2)cc1`, the survival is inactive: 104%.
The value for `Nc1nnc(SCC(=O)Nc2cccc(F)c2)s1` was inactive: 160%; that for `COc1ccccc1C(=O)Nc1cccc(OCc2cc(=O)n3c(C)csc3n2)c1` was inactive: 75%; that for `O=S(=O)(c1cc(Br)c(Br)s1)N1CCN(c2ccccc2)CC1` was inactive: 75%.
On to `Clc1ccc(Nc2nc(-c3ccccc3)c3ccccc3n2)c(Cl)c1`, for which the survival is inactive: 86%.
The value for `CC(C)c1ccc(NC(=O)C2CCN(S(=O)(=O)c3ccc(Br)s3)CC2)cc1` was inactive: 75%; that for `Cc1ccc(S(=O)(=O)c2nnn3c2nc(NCc2ccccc2)c2sccc23)cc1` was inactive: 86%; that for `O=c1[nH]c(-c2ccccc2)nn1-c1ccc(Br)cc1Br` was inactive: 106%.
The value for `CCOc1ccc(CCNC(=O)c2cc3cc4cc(OC)ccc4nc3s2)cc1OCC` was inactive: 117%.
Consider `COc1ccc(-c2noc(N3CCN(c4ccc(Cl)cc4)CC3)n2)cc1OC`, for which the survival was inactive: 71%.
The value for `CCc1nn2c(=O)cc(COC(=O)c3cccc(NC(=O)COc4ccccc4)c3)nc2s1` was inactive: 89%.
Regarding `COc1cccc(NC(=O)CCSc2nc(-c3ccco3)cc(C(F)(F)F)n2)c1`, the survival was inactive: 40%.
Take `COc1ccc2c(c1)CCc1c(C(=O)Nc3cnn(Cc4ccc(Cl)cc4Cl)c3)noc1-2`: the survival is inactive: 118%.
Regarding `COc1ccccc1NC(=O)C1=C(C)Nc2nc(SCc3ccccc3F)nn2C1c1ccncc1` (stereo unspecified), the survival was inactive: 146%.
Regarding `CC(C)Cc1nn2c(=O)cc(COC(=O)c3ccccc3NC(=O)c3cccs3)nc2s1`, the survival is inactive: 76%.
Regarding `CCOc1ccccc1NC(=O)C(=O)c1cc(C)n(-c2cccc(C)c2C)c1C`, the survival is inactive: 99%.
Consider `Cc1cccc(NC(=O)CCN2CCC(C)CC2)c1`, for which the survival is inactive: 104%.
Consider `CCc1cccc(C)c1NC(=O)C1CCN(c2nnc(C)c3c(C)n(-c4ccccc4)nc23)CC1`, for which the survival is inactive: 73%.
For the compound `Cc1cccc(NC(=O)C2CCN(S(=O)(=O)c3ccc4[nH]c5c(c4c3)CCCCC5)CC2)c1`, the survival was inactive: 80%.
Consider `Cc1cc(C)cc(NC(=O)Cn2cc(C(=O)c3ccncc3)c(=O)c3cc(C)c(C)cc32)c1`, for which the survival is inactive: 93%.
As for `CCOC(=O)C(C)C1(O)c2ccccc2-c2ncccc21` (stereo unspecified), the survival was inactive: 109%.
For `COc1ccc(CNC(=O)C2CCN(S(=O)(=O)c3ccc4nc5c(c(C(=O)O)c4c3)CCCC5)CC2)cc1`, the survival is inactive: 95%.
Turning to `C=CCNCc1cccn1-c1ccccc1`, the survival was inactive: 115%.
In the case of `CCCCCn1c(=O)[nH]c2cc(C(=O)N3CCN(c4cccc(Cl)c4)CC3)ccc2c1=O`, the survival was inactive: 85%.
The value for `Cc1ccccc1NC(=O)c1cc2sccc2n1Cc1ccc(F)cc1` was inactive: 104%; that for `CN(c1ccccc1)S(=O)(=O)c1nnc(NC(=O)c2ccco2)s1` was inactive: 70%.
The value for `COc1ccc(OC)c(CNC(=O)c2cc(S(=O)(=O)N3CCC(C)CC3)cn2C)c1` was inactive: 89%; that for `COc1cc2oc(=O)c(CC(=O)NCCc3ccccc3)c(C)c2cc1Cl` was inactive: 90%; that for `COc1cc(/C=N/NC(=O)c2cccc(N3CCCC3=O)c2)ccc1O` was inactive: 108%.
Take `CSc1nn(Cc2ccccc2C)c(NC(C)=O)c1S(=O)(=O)c1ccc(C)cc1`: the survival was inactive: 78%.
The value for `COc1ccc(NC(=O)CCc2nc3c(C)nn(-c4ccc(C)cc4)c3n(C)c2=O)c(OC)c1` was inactive: 90%; that for `CCOC(=O)CCn1c(=O)c2cccn2c2cccnc21` was inactive: 88%; that for `COCCN1Cc2cccc(C(=O)Nc3ccc(C(=O)OC)cc3)c2C1=O` was inactive: 86%.
Take `Cc1cc2cc(CCNS(=O)(=O)c3ccc(Br)cc3)c(=O)[nH]c2cc1C`: the survival was inactive: 57%.
For `Cc1ccc(NC(=O)c2cc(S(=O)(=O)N3CCC(C)CC3)cn2C)cc1Cl`, the survival is inactive: 73%.
The value for `CC(CN)(NS(=O)(=O)c1ccccc1)c1ccccc1` (stereo unspecified) was inactive: 115%; that for `CCOc1ccc(-c2c(C)nn3c(C)c(C(=O)Nc4cccc(Cl)c4C)cnc23)cc1OCC` was inactive: 67%.
The value for `COCCNC(=O)CCCn1c(SCC(=O)c2ccc(F)cc2)nc2c(sc3ccccc32)c1=O` was inactive: 88%; that for `Cc1ccc(NC(=O)/C(C#N)=C\c2ccc(-c3ccc(Cl)cc3)o2)c(C)c1` was inactive: 69%; that for `O=C(CCS(=O)(=O)c1nc(-c2cccs2)cc(C(F)(F)F)n1)Nc1ccc(Br)cc1` was inactive: 67%.
The value for `COc1ccccc1C(=O)Nc1ccc2nc(SCC(=O)N3CCCC3)sc2c1` was inactive: 84%.
Turning to `CCCCc1cc(O)c(CCCC)c(O)c1`, the survival was inactive: 38%.
For the compound `Cc1ccc2nc(-c3ccsc3)c(Nc3ccc(C(C)C)cc3)n2c1`, the survival was inactive: 130%.
